Measured values: PubChem BioAssay AID2451 (National Center for Advancing Translational Sciences (NCATS), 2010)
Hit rate of the full screen: of about 290,000 compounds, about 2,100 (0.72%) were called active. Inconclusive means that the source gave no clear call. Such entries were picked first, then a sample of the others. Calls come from the whole dose curve; as a rule, active = well fitted inhibition curve with a large enough effect; inconclusive = small, poorly fitted or top-dose-only effect, or effect the other way; inactive = flat fitted curve, though single readings scatter. Potencies of inconclusive entries are doubtful fits and often do not repeat.

Biological target: Fructose-bisphosphate aldolase (Giardia intestinalis (strain ATCC 50803 / WB clone C6)) (UniProt A8B2U2)
Chain of UniProt A8B2U2 (A8B2U2 whole entry, looked up): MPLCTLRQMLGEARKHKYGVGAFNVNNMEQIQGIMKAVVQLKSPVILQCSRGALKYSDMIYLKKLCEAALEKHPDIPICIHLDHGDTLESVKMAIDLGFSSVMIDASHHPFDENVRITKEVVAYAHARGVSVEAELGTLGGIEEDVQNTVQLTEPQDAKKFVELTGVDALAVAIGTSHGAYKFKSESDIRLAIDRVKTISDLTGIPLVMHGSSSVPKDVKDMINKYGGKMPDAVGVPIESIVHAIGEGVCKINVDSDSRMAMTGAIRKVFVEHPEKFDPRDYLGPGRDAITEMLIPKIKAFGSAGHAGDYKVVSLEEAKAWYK
Assay: qHTS Assay for Inhibitors of Fructose-1,6-bisphosphate Aldolase from Giardia Lamblia; note: nearly all actives have a fitted effect of over 55% in size
Conditions: purified Giardia FBPA; activity, negative = inhibition: at 59.6 µM (top of the series) unless noted
Outline: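 40 nM FBPA preincubated 10 min at RT with compound (up to 57.5 uM final), then substrate plus GAPDH/TPI/NAD/arsenate coupling and diaphorase/resazurin added. Fluorescence read after 20 min at RT, 525/598 nm.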
% is set by controls: 0 for no effect and ±100 for the full control effect; potency is the fitted concentration of half-maximal effect; tags give direction and shape of the fitted curve.

| SMILES | Potency | activity, negative = inhibition |
| --- | --- | --- |
| Cc1c(CN2CCCCC2)c(O)n(CCCO)c(=O)c1C#N | inconclusive: 7.06 µM [inhibitor, partial curve] | – |
| O=C(O)CCNC(=O)/C(=C/c1ccco1)NC(=O)c1ccco1 | inconclusive: 31.6 µM [inhibitor, single point] | – |
| ClCCN1CCN(c2ccnc3cc(Cl)ccc23)CC1 | inconclusive: 39.8 µM [inhibitor, single point] | – |
| Cc1ccc(CNC(=O)C2CCC(=O)N(CCc3ccccc3)C2)s1 (configuration not stated) | – | inactive: 9.66% |
| CC(=O)O[C@]1(C(C)=O)CC[C@H]2[C@@H]3C=C(Cl)C4=CC(=O)CC[C@]4(C)[C@H]3CC[C@@]21C | inconclusive: 17.7 µM [inhibitor, partial curve] | – |
| O=C(Nc1nnc(-c2cccnc2)o1)c1cccc([N+](=O)[O-])c1 | inconclusive: 19.9 µM [inhibitor, single point] | – |
| CN(Cc1ccon1)C(=O)CC1C(=O)NCCN1Cc1ccccc1C(F)(F)F (configuration not stated) | inconclusive: 31.6 µM [inhibitor, partial curve] | – |
| O=C(Nc1ccc2c(c1)OCCO2)c1cc2ccccc2o1 | inconclusive: 17.7 µM [inhibitor, partial curve] | – |
| O=C(CNCc1ccccc1Cl)NCc1ccco1 | inconclusive: 14.1 µM [inhibitor, partial curve] | – |
| CC(C)Cn1nnnc1S(=O)(=O)CC#N | – | inactive: 2.82% |
| CCc1nc2ccc(C(=O)O)cc2nc1CC | inconclusive: 15.8 µM [inhibitor, partial curve] | – |
| COc1cc(C)c(S(=O)(=O)n2nnc3ccccc32)cc1C | inconclusive: 22.3 µM [activator, single point] | – |
| CCN1C(=O)/C(=C\c2ccc([N+](=O)[O-])s2)C(=O)NC1=S | active: 11.2 µM | – |
| CC(=O)Nc1nc(-c2ccc(Cl)cc2)nc(C)c1C(C)=O | active: 7.06 µM | – |
| COc1ccc(O)c(C2=Nc3ccccc3N=C(c3ccccc3)C2)c1 | – | inactive: -4.3% |
| C=CCSc1n[nH]c(-c2ccc(OCCCC)cc2)n1 | inconclusive: 17.7 µM [inhibitor, single point] | – |
| CCOc1ccccc1NC(=O)CN1CCCCCC1 | inconclusive: 14.1 µM [inhibitor, partial curve] | – |
| CCn1ncc(Br)c1C(=O)Nc1ccc(C(=O)OC(C)C)cc1 | – | inactive: -2.19% |
| COCCCNC(=O)c1ccc2c3c(onc13)-c1ccccc1C2=O | active: 0.889 µM | – |
| COc1ccc(NC(=O)CSc2nnc(Cc3cccn3C)n2-c2ccc(F)cc2)cc1 | – | inactive: -0.149% |
| COc1ccc(Cl)cc1NC(=O)CN(C)Cc1ccc(OC)c(OC)c1 | inconclusive: 14.1 µM [inhibitor, partial curve] | – |
| CCOc1ccccc1CNS(=O)(=O)c1ccc2[nH]c(=O)sc2c1 | inconclusive: 19.9 µM [activator, single point] | – |
| Cc1nc(SCc2ccc(C#N)cc2)n[nH]1 | – | inactive: -18.8% |
| COc1ccccc1C1C(C#N)=C(N)Oc2cc(C)n(Cc3ccccn3)c(=O)c21 (configuration not stated) | inconclusive: 15.8 µM [inhibitor, single point] | – |

| SMILES | Potency | activity, negative = inhibition |
| --- | --- | --- |
| Cc1nc2sc(-c3ccccc3)cc2c(=O)[nH]1 | – | inactive: 3.62% |
| CN(C)c1cccc(C(=O)Nc2cccc(F)c2)c1 | inconclusive: 17.7 µM [inhibitor, single point] | – |
| CC(=O)Nc1sc2c(c1CN1CCN(C)CC1)CCCC2 | – | inactive: 4.43% |
| O=C(CO/N=C/c1ccc(OC(F)F)cc1)N1CCc2ccccc21 | – | inactive: 2.18% |
| O=C(O[C@@H]1OC2COC(=O)c3cc(O)c(O)c(O)c3-c3c(cc(O)c(O)c3O)C(=O)O[C@@H]([C@H]1O)[C@@H]2O)c1cc(O)c(O)c(O)c1 | inconclusive: 0.5 µM [inhibitor, full curve] | – |
| COC(=O)c1c(C)cc(C)c2c1CC(C)(C)C2=O | – | inactive: 0.03% |
| COCCN1C=C2C(=O)C(C)(OC(=O)CCC(=O)OC)C(=O)C(Br)=C2C=C1c1ccc(OC)cc1 (configuration not stated) | inconclusive: 1.26 µM [inhibitor, partial curve] | – |
| CCOC(=O)CN1C(=O)/C(=C2\SC(=S)N(NC(=O)c3cccnc3)C2=O)c2ccccc21 | active: 14.1 µM | – |
| Cc1cc(Cl)c(OCCOCCN2CCCCC2)c(Br)c1 | inconclusive: 14.1 µM [inhibitor, partial curve] | – |
| CC(C)c1onc(C(=O)Nc2sc3c(c2C#N)CCC3)c1[N+](=O)[O-] | inconclusive: 15.8 µM [inhibitor, single point] | – |
| CCC1(CC)Cc2ccccc2-c2nc(NN)[nH]c(=O)c21 | inconclusive: 25.1 µM [inhibitor, single point] | – |
| Nc1nc(SCC(=O)O)[nH]c(=O)c1NC(=O)c1ccco1 | inconclusive: 25.1 µM [inhibitor, partial curve] | – |
| CC(C)NC(=O)c1ccc(Sc2ccccc2)c([N+](=O)[O-])c1 | inconclusive: 35.4 µM [activator, single point] | – |
| COc1cccc(NC(=O)CSc2nnc(-c3ccco3)c(-c3ccco3)n2)c1 | inconclusive: 14.1 µM [inhibitor, partial curve, poor fit] | – |
| CN(C)c1ccc(CNC(=O)CN(C)S(=O)(=O)c2cccc3cccnc23)cc1 | inconclusive: 28.1 µM [inhibitor, single point] | – |
| Cc1cccc(NC(=O)CSc2nnc(-c3ccco3)c(-c3ccco3)n2)c1C | inconclusive: 19.9 µM [inhibitor, partial curve] | – |
| CCN(CC)C1CC(=O)N(c2cccc(C)c2)C1=O (configuration not stated) | – | inactive: -1.26% |
| Cc1nc2nc(CC(=O)O)[nH]n2c(=O)c1[N+](=O)[O-] | inconclusive: 25.1 µM [inhibitor, partial curve] | – |
| CCCn1c(=O)c(C(=O)NNS(=O)(=O)c2ccc(Cl)cc2)c(O)c2ccccc21 | inconclusive: 15.8 µM [inhibitor, single point] | – |
| C[C@H](NC(=O)c1[nH]cnc1C(=O)Nc1ccc(CNC(=O)OC(C)(C)C)cc1)C(=O)OCc1ccccc1 | – | inactive: -11.9% |
| COc1ccc(Nc2nc(C)cc(C)c2C(N)=O)c(OC)c1 | inconclusive: 7.92 µM [inhibitor, single point] | – |
| COC(=O)CCCC1=CC2=C(c3ccccc3)C(=O)C(C)(OC(=O)C3CCCC3)C(=O)C2=CN1C1CCCCC1 (configuration not stated) | inconclusive: 2.23 µM [inhibitor, full curve] | – |
| CCN(CC)C(=O)c1[nH]cnc1C(=O)NCC(=O)OC(C)(C)C | inconclusive: 11.2 µM [inhibitor, partial curve] | – |
| C/C(=N/NC(=O)NC12CC3CC(CC(C3)C1)C2)c1ccccc1 | – | inactive: 10.2% |

| SMILES | Potency | activity, negative = inhibition |
| --- | --- | --- |
| N#CC(C#N)=C1c2cc(S(N)(=O)=O)ccc2-c2ccc(S(N)(=O)=O)cc21 | inconclusive: 15.8 µM [inhibitor, single point] | – |
| OC1CCCN(CC(O)c2ccccc2)C1 (configuration not stated) | inconclusive: 11.2 µM [inhibitor, partial curve] | – |
| CCn1cc(C(=O)O)c(=O)c2cc(F)c(N3CCN(C(=S)NC(=O)c4ccccc4C)CC3)cc21 | inconclusive: 17.7 µM [inhibitor, single point] | – |
| Nc1ccn([C@H]2C[C@H](O)[C@@H](CO)O2)c(=O)n1 | inconclusive: 11.2 µM [inhibitor, partial curve] | – |
| CC1=CC(C)(C)NC(=S)N1c1cc(C)cc(C)c1 | inconclusive: 15.8 µM [inhibitor, partial curve] | – |
| COc1ccc(CNCc2ccc3ccccc3c2)c(OC)c1 | inconclusive: 11.2 µM [inhibitor, partial curve] | – |
| O=C(Nc1cccc(C(F)(F)F)c1)c1cccnc1N1CCN(c2ccccc2)CC1 | inconclusive: 15.8 µM [inhibitor, single point] | – |
| CC1Cc2cc(S(=O)(=O)CCC(=O)NCc3ccco3)ccc2N1C(=O)C1CC1 (configuration not stated) | – | inactive: 0.0146% |
| COC(=O)CC1C(=O)NCCN1C(=S)NC(=O)c1sc2ccccc2c1Cl (configuration not stated) | active: 15.8 µM | – |
| CC(C)NC(NC(=O)Cc1ccccc1)C(Cl)(Cl)Cl (configuration not stated) | – | inactive: -0.626% |
| Nc1cccc2c(=O)[nH]ccc12 | inconclusive: 11.2 µM [inhibitor, partial curve] | – |
| C=CCC(O)(CC=C)CNC(=O)C1CCC(=O)N(CCCc2ccccc2)C1 (configuration not stated) | – | inactive: -4.1% |
| CC(=O)c1c(C)[nH]c(C(=O)NCc2ccco2)c1C | – | inactive: 0.178% |
| S=C(NCCCc1ccccc1)NC1CCCCC1 | inconclusive: 35.5 µM [inhibitor, single point] | – |
| COc1cccc(-n2cnc3cccc(N)c32)c1 | inconclusive: 11.2 µM [inhibitor, partial curve] | – |
| COc1ccc(NC(=O)c2cc(-c3ccco3)on2)cc1OC | – | inactive: 12.3% |
| Clc1ccc(COn2c(-c3ccc(Cl)cc3)nc3ccccc32)cc1 | – | inactive: -1.88% |
| O=C1NC(c2ccc(Br)cc2)Nc2sc3c(c21)CCC3 (configuration not stated) | inconclusive: 25.1 µM [inhibitor, single point] | – |
| COC/C=C/C1=CC2=CC(=O)C(C)(OC(=O)c3cnc4ccccc4n3)C(=O)C2=CN1c1ccc(CO)cc1 (configuration not stated) | inconclusive: 28.2 µM [inhibitor, partial curve] | – |
| CN(C)CCCOc1ccc(Cl)cc1Br | inconclusive: 17.7 µM [inhibitor, partial curve] | – |
| CCOC(=O)/C=C(\C)Sc1cc(O)c2ccccc2c1O | active: 7.06 µM | – |
| O=C(CN1CCc2ccccc2C1)Nc1ccccc1N1CCCCCC1 | inconclusive: 28.1 µM [inhibitor, single point] | – |
| C(=N\NC1=Nc2cccc3cccc1c23)/c1ccccn1 | inconclusive: 17.7 µM [inhibitor, single point] | – |
| CCC(=O)Nc1cccc(NC(=S)NC(=O)c2ccc(Cl)cc2)c1 | inconclusive: 17.7 µM [inhibitor, partial curve] | – |
